# About 14,000 (4.5%) of roughly 310,000 compounds showed an effect of 50% or more. Effects have a minus sign here. The list shows a part of the results.
# Biological target: human ether-à-go-go-related gene (hERG) potassium channel (human, UniProt Q12809)
# Assay: primary screen, population patch clamp on CHO cells stably expressing hERG
# 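Further: peak tail current of the secondary pulse compared with the same well before compound.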
# Sequence of human ether-à-go-go-related gene (hERG) potassium channel (Q12809 whole entry, looked up): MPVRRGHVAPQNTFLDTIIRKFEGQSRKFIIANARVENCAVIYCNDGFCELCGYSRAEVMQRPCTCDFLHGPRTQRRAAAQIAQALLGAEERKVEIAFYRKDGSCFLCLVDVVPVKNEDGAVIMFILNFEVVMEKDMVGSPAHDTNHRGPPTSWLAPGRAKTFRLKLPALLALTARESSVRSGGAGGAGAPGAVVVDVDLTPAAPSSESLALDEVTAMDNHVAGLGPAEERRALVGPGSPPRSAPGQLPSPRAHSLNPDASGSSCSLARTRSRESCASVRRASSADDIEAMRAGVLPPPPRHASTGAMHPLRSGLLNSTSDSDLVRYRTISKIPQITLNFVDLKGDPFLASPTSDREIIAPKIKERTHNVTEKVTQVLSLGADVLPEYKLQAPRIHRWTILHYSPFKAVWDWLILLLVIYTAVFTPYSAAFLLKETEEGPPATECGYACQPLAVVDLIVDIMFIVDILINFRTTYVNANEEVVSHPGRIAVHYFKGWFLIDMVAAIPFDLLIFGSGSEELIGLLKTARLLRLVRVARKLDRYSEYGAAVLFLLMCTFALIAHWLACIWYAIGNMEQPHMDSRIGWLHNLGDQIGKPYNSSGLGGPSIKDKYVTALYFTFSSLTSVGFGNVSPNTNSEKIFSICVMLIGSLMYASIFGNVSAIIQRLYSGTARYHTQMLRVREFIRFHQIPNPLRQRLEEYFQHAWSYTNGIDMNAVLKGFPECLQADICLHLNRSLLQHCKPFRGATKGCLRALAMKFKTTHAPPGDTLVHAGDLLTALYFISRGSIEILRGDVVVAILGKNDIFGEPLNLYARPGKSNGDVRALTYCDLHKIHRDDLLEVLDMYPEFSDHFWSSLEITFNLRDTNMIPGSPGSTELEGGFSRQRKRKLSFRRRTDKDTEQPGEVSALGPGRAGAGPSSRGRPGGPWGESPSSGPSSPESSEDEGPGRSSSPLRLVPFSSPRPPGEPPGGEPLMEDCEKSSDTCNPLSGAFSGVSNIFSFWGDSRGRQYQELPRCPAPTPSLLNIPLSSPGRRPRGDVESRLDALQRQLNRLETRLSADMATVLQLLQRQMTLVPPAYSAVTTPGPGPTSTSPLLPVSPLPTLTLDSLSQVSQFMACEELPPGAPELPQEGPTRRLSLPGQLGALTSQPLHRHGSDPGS
row,SMILES,"hERG current change (%, negative = inhibition) at 10uM [%]"
1,COc1ccc(C(=O)/C=C/c2cccs2)c(OC(=O)N2CCOCC2)c1,-2.94
2,CCCCNc1c(-c2cccc(-c3cc(C(C)=O)cs3)c2)nc2cc(C)ccn12.O=C(O)C(F)(F)F,-18.2
3,O=C(CSc1nnc(Nc2ccccc2)s1)NCC1CCCO1 (stereo not drawn),-1.51
4,COC(=O)CCCNC(=O)c1ccc(OS(=O)(=O)c2cc([N+](=O)[O-])ccc2C)cc1,-3.31
5,COc1ccc(/C(C)=N/NC(=O)c2ccc3nc[nH]c3c2)cc1,11
6,CCC(CC)NC(=O)CCCSc1nc2ccccc2[nH]1,22.3
7,Cc1cc(OCC(O)CN(CCO)CCO)ccc1Cl.Cl (stereo not drawn),5.23
8,CC(C)(C)OC(=O)N[C@@H](Cc1ccccc1)C(=O)N1CCC(C(=O)N[C@@H](Cc2c[nH]c3ccccc23)C(=O)O)CC1,21.9
9,CN1CCC(=O)N(CCSc2ccc(Br)cc2)CC1,-25.5
10,Cc1ccccc1NC(=S)NCC(c1cccnc1)N1CCOCC1 (stereo not drawn),-4.07
11,Cl.Cn1c(SCc2ccccc2)nnc1C1CCCNC1 (stereo not drawn),11.5
12,CCOC(=O)N1CCN(C(=O)c2cccc(F)c2)CC1,-17.9
13,COC(=O)[C@@H](Cc1c[nH]c2ccccc12)NC(=O)C1CCCN(S(=O)(=O)c2ccc(C)cc2)C1 (stereo partly drawn),-16.8
14,CCOC(=O)c1ccc(CNC(=O)C2CCCCC2C(=O)OCC(F)(F)F)o1 (stereo not drawn),3.36
15,COc1ccccc1C(=O)COC(=O)CNS(=O)(=O)c1ccc(C)cc1,-9.78
16,CC(C(=O)Nc1ccc(Cl)cc1Cl)N1CC=C(c2ccccc2)CC1 (stereo not drawn),-28.1
17,N#Cc1cnn(-c2ccc(F)cc2)c1N,20.1
18,CCCCNC(=O)c1cc2cc(CC)ccc2[nH]1,-5.12
19,O=C(CC(=O)N/N=C\c1ccccc1)NCCc1ccccc1,10

row,SMILES,"hERG current change (%, negative = inhibition) at 10uM [%]"
1,COc1ccc(OC)c2[nH]c(=O)c(CCNC(=O)C(=O)c3c[nH]c4ccccc34)cc12,23.4
2,CCOC(=O)CSc1n[nH]c(NC(=O)c2cccc(C(F)(F)F)c2)n1,-7.55
3,CC1(C)C2CCC1(CS(=O)(=O)Nc1ccccc1)C(=O)C2 (stereo not drawn),-5.84
4,Cc1ccc2c(CN3CCN(S(=O)(=O)c4ccccc4C(F)(F)F)CC3)cc(=O)oc2c1C,-5.49
5,Cc1ccc(Cc2nnc(SCC(=O)Nc3ccccc3)n(N)c2=O)cc1,3.39
6,Cc1cc(N)n2ncc(-c3ccc(Cl)cc3)c2n1,1.93
7,CC(=O)c1ccc(NS(=O)(=O)Cc2ccc(Cl)cc2)cc1,-9.47
8,COc1ccc(NC(=O)CN(C)C(=O)c2ccccc2CCc2ccccc2)cc1,-0.925
9,CC(C)CC(=O)NC(=S)NNC(=O)c1ccc([N+](=O)[O-])cc1,-29.5
10,O=C(CSc1nc(C(F)(F)F)cc(=O)[nH]1)N1CCCCCC1,1.22
11,CCc1ccccc1NC(=O)C1COc2ccccc2O1 (stereo not drawn),21.7
12,Cc1ccc(-c2nc(CS(=O)(=O)CC(=O)NC3CCCCCC3)c(C)o2)cc1,6.25
13,O=C(NCc1cccnc1)c1ccc(COc2ccccc2Cl)o1,-5.89
14,O=C(NNC(=O)c1cccnc1Cl)c1ccc(F)cc1,10.7
15,NC(=O)N=Nc1c2[nH]c3ccccc3nc-2c2ccccc12,4.3
16,O=Cc1c(NCc2ccccc2F)c2ccccc2[nH]c1=O,13.8
17,COc1ccc(NC(=O)/C(C#N)=C/c2ccc(Br)o2)cc1,-2.22
18,COCCCC1CCN(Cc2cn[nH]c2-c2cc(OC)c(OC)c(OC)c2)CC1,-61.8
19,O=C(NCc1ccc2c(c1)OCO2)c1cc(F)c(F)cc1Cl,23.9

row,SMILES,"hERG current change (%, negative = inhibition) at 10uM [%]"
1,COC(=O)C1=C(C(=O)OC)[C@@H]2N(Cc3ccccc3)c3ccccc3[C@@]23C[C@@H](C(=O)OC)N(C(=O)c2ccc(Br)cc2)C3=N1,15
2,CC(C)Oc1ccc(C(=O)Nc2ccc(N(C)C)cc2)cc1,-0.517
3,COc1ccccc1-c1nnc(SCC(=O)NCc2cccs2)n1N,0.441
4,CCOc1cc(OCC)cc(C(=O)Nc2cccc(C(C)=O)c2)c1,-3.93
5,Cn1c(SCC(=O)OCc2ccccc2)nnc1-c1ccco1,0.0583
6,Cc1ccc(C2NC(=O)Cc3ccccc32)cc1 (stereo not drawn),-6.09
7,CC(C(=O)Nc1cc([N+](=O)[O-])ccc1Cl)N1CCN(c2ccccc2)CC1 (stereo not drawn),12.3
8,O=C(NCc1ccccc1Br)c1cccc2c1C(=O)c1ccc(N3CCOCC3)cc1S2(=O)=O,10.2
9,COc1ccc(CCNC(=O)CSCc2ccc(Cl)cc2)cc1OC,-25.8
10,CCOC(=O)C1(CCCc2ccccc2)CCN(S(C)(=O)=O)CC1,-8.15
11,CCCCc1ccc(NC(=O)CSc2nc(=O)n(CCN(CC)CC)c3c2CCC3)cc1,-65.8
12,Cc1cc(-c2cn3ccccc3n2)c(C)n1-c1ccccc1,-21.6
13,CC(C)C(=O)N1CCN(c2ccccc2NC(=S)NC(=O)c2ccco2)CC1,8.51
14,CCn1c(=O)cc(SCC(=O)N2CCCCC2)c2ccccc21,-7.44
15,N#Cc1c(-c2ccccc2)nc(SCc2cccc(C(F)(F)F)c2)[nH]c1=O,20
16,O=C(COC(=O)C1COc2ccccc2O1)NC(=O)NC1CCCC1 (stereo not drawn),14
17,Cn1c(CNC(=O)Nc2ccccc2Cl)nnc1SCc1ccccc1,-19.2
18,CCc1cc(=O)oc2cc(C)cc(O)c12,4.75
19,C(=N\n1cnnc1)/c1cccs1,1.37

# Reference: PMC4336329 (PLoS ONE, 2015)
